The results in this text go back to PubChem BioAssay (NCI).

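96-well plates; 48 h exposure; 5 concentrations. Endpoints by linear interpolation between flanking doses. Not reached: highest tested concentration assigned. The concentration for full growth arrest is given as TGI.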 Some entries of the source have several records that differ or are many. This list holds those alone. The source may hold further records. Records of one sample usually come from different ranges of test concentrations, not given here; a value can be the end of its range.

The experiment concerns MDA-MB-468 breast. Description: NCI tumour cell line growth inhibition, 48 h.

For the molecule `CN1CC[C@H](N(C)C(=O)N2CC(c3cc(F)ccc3F)=C[C@@]2(CO)c2ccccc2)[C@H](F)C1`, the TGI was 51.6 nM and 3.34 µM.
